# Assay results published in the supplement of paper PMC3334620.
# Over roughly 33,000 sequences, “E-score (-0.5 to 0.5)” has its median near -0.013; the highest 2% begin near 0.3. This is one part of the list.
# Molecular target: T1, Msn1 (UniProt P22148)
# T1 sequence: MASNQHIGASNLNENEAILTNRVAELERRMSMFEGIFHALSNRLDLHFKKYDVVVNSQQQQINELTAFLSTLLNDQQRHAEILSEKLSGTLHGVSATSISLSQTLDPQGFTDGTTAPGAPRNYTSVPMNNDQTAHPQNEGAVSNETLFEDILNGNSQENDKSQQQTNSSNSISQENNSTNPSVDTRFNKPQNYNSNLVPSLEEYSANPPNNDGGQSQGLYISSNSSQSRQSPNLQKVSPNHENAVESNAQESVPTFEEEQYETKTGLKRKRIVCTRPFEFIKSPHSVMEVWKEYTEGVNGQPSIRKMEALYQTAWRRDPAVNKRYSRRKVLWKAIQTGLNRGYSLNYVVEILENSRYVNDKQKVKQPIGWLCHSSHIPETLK
# Assay: PBM E-score (8-mer binding enrichment) (E-score (-0.5 to 0.5)); higher = stronger / more preferred TF binding; most listed sequences are background and not binding sites
# Settings: protein concentration: 200 nM; construct: GST-full length
# Procedure, shortened: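 Universal all-10-mer Agilent arrays, double-stranded by primer extension on fresh or once-stripped slides, were probed with about 100-200 nM GST-tagged yeast transcription factors made by PURExpress. Fluorescent anti-GST detected bound protein, and masliner normalised the scans. E-scores from the Universal PBM Analysis Suite were given to each ungapped eight-base word pooled with its reverse complement.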
row,Sequence,PBM E-score
1,AAAGAGAT,-0.0658
2,TACAGATA,0.155
3,ACACGGTA,-0.0076
4,ACAACGGT,0.00073
5,TAGCTGCA,-0.245
6,ATATGGGC,0.0311
7,AAACGATG,0.0779
8,GAAAAGGC,-0.0462
9,ATATGCCA,0.0519
10,AACCCGGT,-0.217
11,TACACCGA,0.162
12,TCAACAAA,0.113
13,GTGCCTGA,-0.25
14,AACACATA,0.071
15,GAAGAGCA,-0.243
16,ACGCGCAC,-0.025
17,CTTGCTTA,-0.00126
18,CAAGAGCA,-0.164
19,ATCCACCA,-0.148
20,CCACGCAA,-0.0256
21,AATGTTCC,0.176
22,CCCGTCGG,-0.194
23,GTTCACTA,0.0987
24,CAATTGCG,-0.00651
25,GCCCCAAC,-0.042

row,Sequence,PBM E-score
1,AGGTCATC,0.0226
2,CCCCTATC,-0.243
3,GAAGAGCC,-0.0467
4,AGTCCGTA,0.208
5,ATATAGTG,0.198
6,ACTCGCAC,-0.0502
7,ACCGCACG,-0.0708
8,CTTTGCAC,0.0381
9,ACATAGCG,0.0839
10,GCATCCTA,-0.107
11,CAGGAGAC,-0.17
12,ATCAACTG,0.0832
13,ACAGCCTA,0.142
14,GCCGTTAA,0.0997
15,AAGAGGTC,-0.191
16,CCTAAAAA,0.0396
17,TGGCAAAA,0.174
18,CCAGTTAC,-0.166
19,ATCCCAGG,-0.0875
20,ACGAAGTG,0.119
21,ACAATTAT,0.273
22,ATTTGTGG,0.207
23,ACCAGACT,-0.00359
24,GCGTTCAA,-0.131
25,CTTAAATC,0.0754

row,Sequence,PBM E-score
1,TCAAGTAA,0.239
2,ATAAGCCG,0.00553
3,CTCGTTCA,0.148
4,AAATCCCA,0.0405
5,CCAACCGC,0.0322
6,TCCGCCCA,-0.0499
7,GGTGGCTA,-0.176
8,TAGGTATA,0.0777
9,GAATGGAC,0.217
10,CCGTATTA,0.0851
11,AAATATGC,-0.0194
12,GTTGCAGA,-0.107
13,TTCTACAA,0.0874
14,TCCCTTAA,-0.00555
15,AAGATTAT,0.114
16,GATTATTA,-0.0075
17,AATTTAGA,0.11
18,TAATACAA,0.145
19,CCGGGTCC,0.0052
20,CAATCGCA,0.00062
21,ACGACTCA,-0.0661
22,CGCCCACG,-0.23
23,CCGCTGTA,0.00153
24,GACGCATC,0.129
25,GTCACTTA,0.218

row,Sequence,PBM E-score
1,TTAATTAA,-0.0655
2,ATGGGCCG,-0.222
3,CATAGGCA,-0.118
4,CGCCTAGA,-0.0394
5,GGGAAGTA,-0.0216
6,GGTCCTAA,0.18
7,TCCCCGAA,-0.00114
8,ACGATTCC,-0.012
9,ATGGTGTC,0.162
10,ATGGTATC,-0.00837
11,GTTATTGA,0.0396
12,CAATGGGA,0.0129
13,GGATCTGA,0.021
14,ACCCTGAC,-0.0428
15,ATTCGTCA,0.0623
16,AGTATCTA,0.197
17,AGTGTGCG,-0.0823
18,CCTTAGGC,-0.252
19,CGGCGATC,0.0124
20,CCGGCAGA,-0.00566
21,GCGCCGGA,-0.00906
22,CGGCCCCA,-0.326
23,ATCGAGCC,-0.0197
24,GCTTAACA,0.00132
25,TGAAGGCA,-0.0775

row,Sequence,PBM E-score
1,CATGCATA,-0.0364
2,TCGGTGCA,0.0189
3,CTCACATA,-0.0194
4,TAGTGGAA,-0.0712
5,AGAGACAG,0.0165
6,AGATTAGC,-0.0505
7,GTGCAGAA,-0.0299
8,ATTTGGAA,-0.0497
9,TAATTCCA,0.119
10,CTAGGATC,-0.0192
11,ATAGGGTA,-0.0611
12,GAGTCCTA,0.0172
13,CTTGCGAC,-0.0181
14,AAGGTCAA,-0.0743
15,AACTCCAC,-0.0751
16,GCAGAGCA,-0.271
17,ACGCTTAT,-0.182
18,GACCAGGC,-0.263
19,AAGTACTC,0.0584
20,CAATAGTA,0.0551
21,GTTGTCCA,0.381
22,GTTCGTAA,-0.00089
23,AAATCCAG,0.0557
24,AGAATGAT,0.124
25,CTTTAGTA,0.0225

row,Sequence,PBM E-score
1,AGCTGTGA,0.0457
2,ATCCGGGG,-0.1
3,AATTAACA,0.0468
4,TGGCGACA,0.145
5,TAAAACTA,0.106
6,AGAAGTTC,-0.177
7,CTATACGC,-0.0146
8,CTGCTTCC,-0.229
9,AGCCTGGG,-0.109
10,CAACCTAG,-0.0247
11,AATGCTCC,-0.0775
12,CAGTCCCA,-0.113
13,ATAATGGC,-0.0691
14,GTCGAAAA,0.0756
15,ACAACTCC,0.021
16,GCGACTAC,-0.0798
17,ACTGGCTG,-0.232
18,CCATGCAA,0.118
19,AAAGCATT,0.0712
20,CGATCTAA,0.109
21,GGGGGACC,-0.442
22,AACCCAGT,-0.0862
23,CACTGCCA,-0.00668
24,AAGGTGTA,0.0651
25,CAATGGTC,0.112

row,Sequence,PBM E-score
1,CAAATCCG,0.176
2,CACAACAG,-0.113
3,CTTGGTCC,0.064
4,AGAATACG,-0.0196
5,AAGGGAAG,-0.0141
6,CAGCAGGA,-0.216
7,AACCGGGA,0.0147
8,GAACACAC,-0.137
9,TCAGTGCA,-0.1
10,AAAGGTTC,-0.134
11,AGATTTTC,0.0741
12,CGTCAGAC,0.0686
13,CACGGCAG,0.0331
14,AACGGCGC,-0.0284
15,CGTCCGAA,0.222
16,GTCTTTTA,0.0918
17,AACGTAAA,0.0642
18,ATAGGTCC,0.12
19,ATGATGTG,-0.00297
20,AACCCTAA,0.0238
21,AGCCCCTG,-0.42
22,ATAGAAGG,-0.0499
